# Results from PubChem BioAssay AID445 (National Center for Advancing Translational Sciences (NCATS), 2006).
# Out of some 110,000 compounds screened, about 40 (0.04%) were called active. The shares of active, inactive and inconclusive entries below differ from those in the screen. Calls come from the whole dose curve; as a rule, active = well fitted curve in the direction sought with a large enough effect in the signal ratio (not every such curve was filed as active); inconclusive = small, poorly fitted or top-dose-only effect, or a change in a side signal; inactive = flat fitted curve, though single readings scatter; the % refers to the signal ratio. A potency beside an inconclusive call is a rough fit, not a confirmed value.
# Assay: IkB Signaling;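 for IkBa stabilization activation: 0% = basal untreated cells and 100% = reference inhibitor full response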
# Conditions: ABC-DLBCL IkBa-CBG/CBR dual luciferase ratio (green luciferase fused to IkBa over red control in OCI-Ly3 lymphoma cells), 4 h; IkBa stabilization activation: at 57.1 µM (top of the series), scaled: untreated 0%, proteasome inhibitor 100% unless noted
# Outline: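 Curves were fitted separately to fusion (green), unfused (red) and ratio luminescence, then classed by r2, magnitude and activity. Cells: OCI-Ly3, 4 h compound plus doxycycline at 37C; 10 uM MG-132 defined full response.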
# Potency is the fitted concentration of half-maximal effect.
Structure (SMILES),IkBa stabilization activation,Potency
COc1ccc(CN2CCN(C(=O)CC(C)C)CC2)c2ccccc12,inconclusive: 2.87% [signal inhibitor],
CCNc1nc(NC(C)C)nc(N(C#N)CCOc2ccc(Cl)cc2Cl)n1,inconclusive: -0.954% [signal inhibitor],
O=C(Cn1ncc2ccc(Cl)cc21)NCc1ccc(F)cc1,inactive: 0.411%,
CCOc1ccc(OCc2ccc(C(=O)O)o2)cc1,,"inconclusive: 25.1 µM [signal inhibitor, partial curve]"
Cc1ccc(C)c(NC(=O)CSc2ncc(S(=O)(=O)c3ccc(C)c(Cl)c3)c(=O)[nH]2)c1,inconclusive: 2.79% [signal inhibitor],
O=C(c1ccc2c(c1)N(Cc1ccc(F)cc1)C(=O)c1ccccc1S2=O)N1CCC(Cc2ccccc2)CC1 (stereo not drawn),inconclusive: -0.268% [signal inhibitor],
CCc1ccc(CNC(=O)c2ccc(NC(=O)N3CCCCc4ccccc43)cc2)cc1,inconclusive: 1.91% [signal inhibitor],
COc1ccccc1NC(=O)c1cccc(S(=O)(=O)N2CCCCCC2)c1,,inconclusive: 39.8 µM [signal inhibitor]
COCc1cc(C)nc2sc(C(=O)N3CCN(c4ccccc4)CC3)c(N)c12,inactive: 2.05%,
Cc1c(Cl)cccc1NC(=O)Nc1nnc(N2CCCCCC2)s1,inconclusive: 1.7% [signal inhibitor],
COc1ccccc1OCC(=O)Nc1cccc(-c2nc3ccccc3o2)c1,inconclusive: 1.35% [signal inhibitor],
Cc1ccc(C(=O)Nc2cccc(C(=O)O)c2)cc1S(=O)(=O)N1CCCC1,inactive: 3.58%,
O=c1ccnc(NCCc2ccccc2)[nH]1,inactive: 3.62%,
CNC(=O)c1ccccc1NC(=O)c1cccc(S(=O)(=O)N2CCC(C)CC2)c1,inconclusive: 3.47% [signal inhibitor],
COc1ccc(N2CCN(C(=O)c3cn(CC(C)C)c(=O)c4c3c3ccccc3n4C)CC2)cc1,inconclusive: 3.82% [signal inhibitor],
COC(=O)C1=C(C)NC(C)=C([N+](=O)[O-])[C@H]1c1ccccc1C(F)(F)F,inconclusive: 1.94% [signal inhibitor],
CC(C)(C)C1CCc2c(sc(NC(=O)Cn3nnc(-c4ccccc4F)n3)c2C#N)C1 (stereo not drawn),inconclusive: 0.542% [signal inhibitor],
CCOC(=O)c1cc(-c2ccccc2)n(-c2cccc(C(=O)Nc3ccc(OC)cc3)c2)c1C,inactive: -0.507%,
O=C(Cn1c(=O)c2cccn2c2ccccc21)Nc1cc(F)ccc1F,inconclusive: 0.456% [signal inhibitor],
COc1ccc(-c2[nH]ncc2C(=O)NCc2ccccc2C)cc1,inactive: -1.02%,
CCOC(=O)CCC(NC(=O)c1ccc(NCN2C(=O)CCC2=O)cc1)C(=O)OCC (stereo not drawn),inactive: 0.683%,
CCC(C(=O)NCCc1ccc(SC)cc1)n1nc(C)c2sc3ccccc3c2c1=O (stereo not drawn),inactive: 0.516%,
Cc1onc(-c2ccccc2Cl)c1C(=O)Oc1cc(F)cc(F)c1,inconclusive: -3.52% [signal inhibitor],
CC1(C)CC2CC(C)(CN2c2ncnc3ccccc23)C1 (stereo not drawn),inconclusive: 6.55% [signal inhibitor],

Structure (SMILES),IkBa stabilization activation,Potency
CCN1CCN(C(=O)c2cc3c(=O)oc4ccc(C)cc4c3s2)CC1,inactive: 0.0356%,
COc1ccc(CNC(=O)C2CC(c3cccc(OC)c3)=NO2)cc1 (stereo not drawn),inactive: 3.18%,
Clc1cccc(-n2ncc3c(N4CCCCC4)ncnc32)c1,inconclusive: 9.95% [signal inhibitor],
CCN(c1cccc(C)c1)S(=O)(=O)c1ccc2[nH]cc(C(=O)NCCCOC)c(=O)c2c1,inconclusive: 1.32% [signal inhibitor],
O=c1c2ccccc2nc2sc3ccccc3n12,inactive: -2.33%,
CN(C)CCN(Cc1ccccc1)S(=O)(=O)c1cccc2cccnc12,inactive: -0.22%,
CC1=C(C(=O)Nc2cc(-c3cccc(F)c3)[nH]n2)C2(CCCCC2)OC1=O,inconclusive: 15.9% [signal inhibitor],
CCC1CN(C(=O)N2CCC(C(=O)NCc3cccc(C)c3)CC2)c2ccccc2O1 (stereo not drawn),inconclusive: 1.33% [signal inhibitor],
O=C(Cn1c(=O)nc(-c2ccccc2F)c2cc(Cl)ccc21)N1CCN(c2ccccc2F)CC1,inconclusive: 1.88% [signal inhibitor],
O=C(NCCCn1ccnc1)Nc1ccc(Cl)c(Cl)c1,inactive: 0.758%,
COc1ccc(CNC(=O)c2c3c(nc4ccccc24)C(=O)N(C2CCCCC2)C3)c(OC)c1,inconclusive: 13.4% [signal inhibitor],
COC(=O)c1scc(-c2ccc(C)cc2)c1S(=O)(=O)Nc1cc(OC)c(OC)c(OC)c1,inconclusive: 0.0663% [signal inhibitor],
CCCCCCCCC(=O)NCc1cc(OC)c(O)cc1I,inconclusive: 0.554% [signal inhibitor],
Cc1oc(-c2ccc(F)cc2)cc1-c1nn2c(-c3ccco3)nnc2s1,inactive: 2.81%,
Nc1cccc(S(=O)(=O)O)c1,inactive: 4%,
CCOC(=O)c1ccc(Nc2c(-c3ccc(O)c(OC)c3)nc3nc[nH]n23)cc1,inconclusive: 5.1% [signal activator],
COc1ccc(C(=O)N2CCC3(CCN(C)CC3)CC2)cc1,"inactive: 0.946% [at 11.4 µM, scaled: untreated 0%, proteasome inhibitor 100%]",
Cc1ccc(C)c(Cn2cnc3c(nnn3-c3ccc(F)cc3)c2=O)c1,inactive: 1.55%,
COc1ccc(CNc2oc(-c3ccccc3)nc2C#N)cc1,inconclusive: 8.55% [signal inhibitor],
COc1cc(NS(=O)(=O)c2ccc3c(c2)CCN3S(C)(=O)=O)cc(OC)c1,inconclusive: 3.01% [signal inhibitor],
Cc1ccccc1-c1nc(CS(=O)(=O)CC(=O)NCC(C)c2ccccc2)c(C)o1 (stereo not drawn),inconclusive: 2.06% [signal inhibitor],
O=C(COc1ccccc1Cl)NCC1(N2CCOCC2)CCCCC1,inconclusive: 4.02% [signal inhibitor],
COc1cccc(C(=O)NC2CCSC2=O)c1 (stereo not drawn),inactive: 0.0486%,
CCCc1nn2c(=O)cc(COC(=O)c3cccc(NC(=O)COc4ccccc4C)c3)nc2s1,inconclusive: 12.2% [signal inhibitor],
